Experimental findings from article PMC4336329 (PLoS ONE, 2015) are described below.

Structures are written as SMILES. About 2,200 (0.71%) of roughly 310,000 compounds showed an effect of 50% or more. The effect is printed as a negative number. The list shows a part of the results.

human ether-à-go-go-related gene (hERG) potassium channel, sequence (Q12809 whole entry, looked up): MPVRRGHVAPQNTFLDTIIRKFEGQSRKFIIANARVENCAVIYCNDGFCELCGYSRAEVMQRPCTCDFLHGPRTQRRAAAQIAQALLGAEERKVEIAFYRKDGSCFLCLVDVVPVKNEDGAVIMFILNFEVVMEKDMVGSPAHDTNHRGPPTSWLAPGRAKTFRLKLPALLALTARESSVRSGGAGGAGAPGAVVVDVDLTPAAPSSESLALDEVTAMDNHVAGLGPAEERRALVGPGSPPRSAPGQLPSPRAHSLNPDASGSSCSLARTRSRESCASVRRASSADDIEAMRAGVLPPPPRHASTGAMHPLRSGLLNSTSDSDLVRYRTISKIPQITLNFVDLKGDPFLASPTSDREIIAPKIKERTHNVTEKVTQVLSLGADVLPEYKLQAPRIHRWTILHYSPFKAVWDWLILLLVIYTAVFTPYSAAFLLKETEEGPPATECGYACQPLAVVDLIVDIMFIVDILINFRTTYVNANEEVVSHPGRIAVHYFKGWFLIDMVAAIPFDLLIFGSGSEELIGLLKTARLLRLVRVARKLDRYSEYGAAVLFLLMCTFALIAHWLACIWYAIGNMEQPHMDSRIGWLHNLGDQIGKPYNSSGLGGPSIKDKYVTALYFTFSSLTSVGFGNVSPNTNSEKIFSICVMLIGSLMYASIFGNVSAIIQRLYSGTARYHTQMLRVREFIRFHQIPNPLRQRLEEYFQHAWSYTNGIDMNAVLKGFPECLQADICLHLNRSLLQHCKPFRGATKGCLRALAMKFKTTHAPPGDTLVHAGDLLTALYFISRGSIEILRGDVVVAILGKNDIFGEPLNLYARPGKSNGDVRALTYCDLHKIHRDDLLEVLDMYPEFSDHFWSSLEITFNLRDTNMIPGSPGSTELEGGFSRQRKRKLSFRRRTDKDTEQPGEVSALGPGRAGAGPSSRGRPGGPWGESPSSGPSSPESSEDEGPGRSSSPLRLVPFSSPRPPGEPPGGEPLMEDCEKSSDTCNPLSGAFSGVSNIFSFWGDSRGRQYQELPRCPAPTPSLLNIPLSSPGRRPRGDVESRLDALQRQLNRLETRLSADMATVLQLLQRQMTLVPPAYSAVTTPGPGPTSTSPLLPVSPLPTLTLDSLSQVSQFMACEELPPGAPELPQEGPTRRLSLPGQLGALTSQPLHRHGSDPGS

This assay concerns the target human ether-à-go-go-related gene (hERG) potassium channel (human, UniProt Q12809). The assay is described as follows: primary screen, population patch clamp on CHO cells stably expressing hERG.
For the molecule `COc1ccc(OCC(=O)Nc2ccc3c(c2)OCO3)cc1`, the “hERG current change (%, negative = inhibition) at 1uM” value worked out at 11.7%. Then `Cc1ccc([N+](=O)[O-])cc1NC(=O)Nc1ccc(S(N)(=O)=O)cc1`, with 10.3%. With `COc1ccccc1C(C)NC(=O)c1ccc(NC(=O)CC2SC(N3CCCC3)=NC2=O)cc1` (centres unmarked) the figure was 9.73%; with `Cc1cc(C)n(-c2nc3c(c(=O)[nH]c(=O)n3C)n2CC(O)COc2ccc(Cl)cc2Cl)n1` (centres unmarked), 6.36%; with `COc1ccc(NC(=O)NCCN2CCN(c3ccc(C)cc3)CC2)c(Cl)c1`, 10.5%. With `Cc1cccc(OCC(O)Cn2c(NCCCOC(C)C)nc3c2c(=O)[nH]c(=O)n3C)c1` (centres unmarked) the figure was 15.5%; with `CCOc1cc(C(=S)N2CCOCC2)cc(Br)c1OS(=O)(=O)c1ccccc1`, 9.96%; with `Cc1ccc2nc(SCC(=O)Nc3ccccc3F)nc(=O)n2c1`, 0.366%. Take `Cc1ccc(NC(=O)CCn2nnc3ccccc32)cc1`: the “hERG current change (%, negative = inhibition) at 1uM” value is given as 11.5%. In the case of `Cc1ccc(C)c(NS(=O)(=O)c2cc(C(=O)Nc3ccccc3-c3ccccc3)ccc2C)c1`, the “hERG current change (%, negative = inhibition) at 1uM” value is on record as 20.7%. For the molecule `CC(C)c1ccc(NC(=O)NC2CCN(CC(=O)Nc3cccc4ccccc34)CC2)cc1`, the “hERG current change (%, negative = inhibition) at 1uM” value is on record as 0.726%. Then `CCOc1ccc(CNC(=O)c2ccc3nc(N4CCOCC4)sc3c2)cc1`, with 11.9%; and `CCOC(=O)C1CCCN(C(=O)C(C)(C)Oc2ccc(Cl)cc2)C1` (centres unmarked), with 9.7%. As for `Cc1cccc(-c2cc3nc(-c4ccccc4)cc(N4CCC5(CC4)OCCO5)n3n2)c1`, the “hERG current change (%, negative = inhibition) at 1uM” value amounted to 3.79%. As for `O=C(CSc1nnc(CNC(=O)c2cccs2)o1)Nc1ccc(F)cc1F`, the “hERG current change (%, negative = inhibition) at 1uM” value stood at 10.7%. For `Cc1ccc(C(=O)NNC(=O)c2ccc(C)cc2)cc1`, the “hERG current change (%, negative = inhibition) at 1uM” value was determined as 10.1%. `Cc1ccc(-n2nnnc2Sc2nc([N+](=O)[O-])nn2C)cc1`: the “hERG current change (%, negative = inhibition) at 1uM” value is given as -2.24%. In the case of `Cc1c(NC(=O)COc2cccc3c2OC(C)(C)C3)c(=O)n(-c2ccccc2)n1C`, the “hERG current change (%, negative = inhibition) at 1uM” value is on record as 9.98%. Regarding `CCNC(=S)N/N=C(\C)c1cc2ccccc2o1`, the “hERG current change (%, negative = inhibition) at 1uM” value amounted to 8.88%. With `CCSc1nnnn1-c1ccccc1` the figure was 12.6%.

Consider `CCC(C)(C)C1CCC2(CC1)NC(=O)N(CC(=O)N1CCN(S(=O)(=O)c3cc(C)ccc3C)CC1)C2=O` (centres unmarked), for which the “hERG current change (%, negative = inhibition) at 1uM” value is 7.25%. Consider `O=C(CSC(=S)N1CCOCC1)Nc1nc(=O)c2ccccc2s1`, for which the “hERG current change (%, negative = inhibition) at 1uM” value worked out at 11.2%. Consider `O=[N+]([O-])c1ccc(-c2ccc(S(=O)(=O)N3CCOCC3)cc2)cc1`, for which the “hERG current change (%, negative = inhibition) at 1uM” value is recorded as 1.45%.
